# PubChem BioAssay (Tox21)
# Inconclusive means that the source gave no clear call. Such entries were picked first, then a sample of the others. A call without a number means that no potency is given here. For some assays here: Potencies beside an inconclusive call are fits to weak or partial responses and may not hold up. Active and inactive are the calls of the source. Unless noted, the call rests on the fitted dose curve.
# How the values were obtained:
# [1] = qHTS assay for small molecule agonists of the antioxidant response element (ARE) signaling pathway - cell viability counter screen (AID 743203); settings: ARE-bla HepG2 viability, CellTiter-Glo luminescence, 16 h; viability change, negative = cytotoxic: at 73.3 µM (top of the series); further: nearly all actives have a fitted effect of over 55% in size
# Procedure, shortened: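 Measured in the same wells as the beta-lactamase ARE reporter, this read-out is CellTiter-Glo luminescence from HepG2 ARE-bla cells given compounds for 16 hrs.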
# [2] = qHTS assay to identify small molecule agonists of the peroxisome proliferator-activated receptor delta (PPARd) signaling pathway - cell viability counter screen (AID 743211; active means well fitted curve in the direction sought with a large enough effect in the repeat runs; inconclusive means weak or mixed curves; inactive means no such curve, though single readings can be large; an effect the other way counts as inactive or inconclusive; further: nearly all actives have a fitted effect of over 55% in size; further: potency means the concentration at half of the fitted maximal effect); settings: PPARd-bla HEK293H viability, CellTiter-Glo luminescence, 17 h; activity change, negative = cytotoxicity: at 62.6 µM (top of the series)
# Procedure, shortened: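 Tox21 library compounds, delivered in DMSO, were incubated 17 h with PPARd-bla HEK293H cells; cytotoxicity was taken from CellTiter-Glo luminescence read 30 min after reagent addition.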
# [3] = target: Peroxisome proliferator-activated receptor delta (Homo sapiens) (UniProt Q03181); assay: qHTS assay to identify small molecule agonists of the peroxisome proliferator-activated receptor delta (PPARd) signaling pathway (AID 743212); settings: HEK293H PPARd-UAS-bla, beta-lactamase FRET ratio, 17 h; activation: at 62.6 µM (top of the series) unless noted;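 further: HEK293H cells with PPARd UAS beta-lactamase reporter GeneBLAzer system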
# Procedure, shortened: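 Beta-lactamase reporter readout: a ratiometric FRET signal from the LiveBLAzer substrate after 2 h at room temperature. Compound exposure at 37 °C in PPARδ-bla HEK293H cells driven by an upstream activator sequence.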
# [4] = qHTS assay to identify small molecule antagonists of the peroxisome proliferator-activated receptor delta (PPARd) signaling pathway - cell viability counter screen (AID 743213; active means well fitted curve in the direction sought with a large enough effect in the repeat runs; inconclusive means weak or mixed curves; inactive means no such curve, though single readings can be large; an effect the other way counts as inactive or inconclusive; further: nearly all actives have a fitted effect of over 50% in size; further: potency means the concentration at half of the fitted maximal effect); settings: PPARd-bla HEK293H viability, CellTiter-Glo luminescence, 17 h; viability change, negative = cytotoxic: at 62 µM (top of the series) unless noted
# Procedure, shortened: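 In this counter screen, HEK293H cells carrying a UAS-beta-lactamase reporter are co-treated with test compounds and 300 nM L165041 (final) for 17 h at 37 C; cell viability is quantified by CellTiter-Glo luminescence.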
# [5] = target: Bile acid receptor (Homo sapiens) (UniProt Q96RI1); assay: qHTS assay to identify small molecule antagonists of the farnesoid-X-receptor (FXR) signaling pathway (AID 743217; active means well fitted inhibition curve with a large enough effect in the signal ratio in the repeat runs, not every such curve was filed as active; inconclusive means weak or mixed curves, or effect the other way; inactive means no such curve, though single readings can be large or run the other way; the % refers to the signal ratio); settings: HEK293T FXR-UAS-bla, beta-lactamase ratio, CDCA-stimulated, 16 h; activity change, negative = inhibition: at 62.6 µM (top of the series) unless noted
# Procedure, shortened: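 FRET fluorescence after 2 h room-temperature LiveBLAzer loading gives the readout. Prior step: FXR-bla HEK 293T cells, seeded and incubated 5 h, received test compounds plus 50 uM final CDCA for 16 h at 37 °C.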
# [6] = qHTS assay to identify small molecule agonists of the farnesoid-X-receptor (FXR) signaling pathway - cell viability counter screen (AID 743218; active means well fitted curve in the direction sought with a large enough effect in the repeat runs; inconclusive means weak or mixed curves; inactive means no such curve, though single readings can be large; an effect the other way counts as inactive or inconclusive; further: nearly all actives have a fitted effect of over 45% in size); settings: FXR-bla HEK293T viability, CellTiter-Glo luminescence, 16 h; viability change, negative = cytotoxic: at 62.6 µM (top of the series) unless noted
# Procedure, shortened: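 Readout: CellTiter-Glo luminescence, 30 min RT, multiplexed after the FXR-bla FRET reading. HEK 293T FXR-UAS-bla cells received compound 5 h post-plating and were incubated 16 h at 37 C.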
# [7] = qHTS assay to identify small molecule antagonists of the farnesoid-X-receptor (FXR) signaling pathway - cell viability counter screen (AID 743221; active means well fitted cell-killing curve with a large enough effect in the repeat runs, not every such curve was filed as active; inconclusive means weak or mixed curves, or effect the other way; inactive means no such curve, though single readings can be large or run the other way; further: nearly all actives have a fitted effect of over 50% in size; further: potency means the concentration at half of the fitted maximal effect); settings: FXR-bla HEK293T viability, CellTiter-Glo luminescence, 16 h; activity change, negative = cytotoxicity: at 62.6 µM (top of the series) unless noted
# Procedure, shortened: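 Cytotoxicity is taken from ATP luminescence (CellTiter-Glo, 30 min, room temperature) in FXR-bla HEK 293T cells previously incubated 16 h at 37 C with compound and chenodeoxycholic acid at 50 uM final.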
# [8] = target: Vitamin D3 receptor (Homo sapiens) (UniProt P11473); assay: qHTS assay to identify small molecule antagonists of the vitamin D receptor (VDR) signaling pathway (AID 743223; active means well fitted inhibition curve with a large enough effect in the signal ratio in the repeat runs, not every such curve was filed as active; inconclusive means weak or mixed curves, or effect the other way; inactive means no such curve, though single readings can be large or run the other way; the % refers to the signal ratio; further: potency means the concentration at half of the fitted maximal effect); settings: VDR-UAS-bla HEK293T, beta-lactamase FRET ratio, 16 h; activity change, negative = inhibition: at 61 µM (top of the series) unless noted
# Procedure, shortened: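 Quantitative HTS in VDR-bla reporter cells stimulated with 1alpha,25-dihydroxyvitamin D3, 3 nM final. Compound exposure 16 h, 37C, 5% CO2. Read-out: beta-lactamase FRET substrate fluorescence, 2 h RT.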
# [9] = qHTS assay to identify small molecule agonists of the AP-1 signaling pathway (AID 1159526); settings: ME-180 (cervical carcinoma) AP-1-bla reporter, beta-lactamase FRET ratio, 5 h; activation: at 76.8 µM (top of the series) unless noted; further: potency means the concentration at half of the fitted maximal effect
# [10] = qHTS assay for small molecule activators of the heat shock response signaling pathway - cell viability counter screen (AID 743209; active means well fitted curve in the direction sought with a large enough effect in the repeat runs; inconclusive means weak or mixed curves; inactive means no such curve, though single readings can be large; an effect the other way counts as inactive or inconclusive; further: nearly all actives have a fitted effect of over 50% in size; further: potency means the concentration at half of the fitted maximal effect); settings: HSE-bla HeLa viability, CellTiter-Glo luminescence, 5 h; activity change, negative = cytotoxicity: at 62.6 µM (top of the series)
# Procedure, shortened: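 Same-well multiplex: after 2.5 h room-temperature incubation with LiveBLAzer B/G substrate and fluorescence reading, CellTiter-Glo reagent was added to HSE-bla HeLa cells that had received compound for 5 h at 37 C; luminescence read after 30 min.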
# [11] = qHTS assay for small molecule activators of the heat shock response signaling pathway (AID 743210; active means well fitted activation curve with a large enough effect in the signal ratio in the repeat runs, with a control signal flat, not every such curve was filed as active; inconclusive means weak or mixed curves; the % refers to the signal ratio; further: potency means the concentration at half of the fitted maximal effect); settings: HeLa HSE-bla reporter, beta-lactamase ratio, 5 h; activation: at 62.6 µM (top of the series) unless noted
# Procedure, shortened: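 Compound exposure lasted 5 h at 37 C in HeLa cells carrying a heat-shock-element-driven beta-lactamase reporter. Read-out: fluorescence intensity after 2.5 h room-temperature loading with LiveBLAzer B/G FRET substrate.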
# [12] = qHTS assay to identify small molecule antagonists of the vitamin D receptor (VDR) signaling pathway - cell viability counter screen (AID 743225; active means well fitted curve in the direction sought with a large enough effect in the repeat runs; inconclusive means weak or mixed curves; inactive means no such curve, though single readings can be large; an effect the other way counts as inactive or inconclusive; further: potency means the concentration at half of the fitted maximal effect; nearly all actives have a fitted effect of over 50% in size); settings: VDR-bla HEK293T viability, CellTiter-Glo luminescence, 16 h; viability change, negative = cytotoxic: at 61 µM (top of the series) unless noted
# Procedure, shortened: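 Same-well multiplex: following 16 h treatment of HEK 293T cells carrying a UAS-driven beta-lactamase reporter with compound and agonist (3 nM final), and a 2 h FRET substrate step, CellTiter-Glo was added and luminescence read after 30 min.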
# [13] = target: Peroxisome proliferator-activated receptor delta (Homo sapiens) (UniProt Q03181); assay: qHTS assay to identify small molecule antagonists of the peroxisome proliferator-activated receptor delta (PPARd) signaling pathway (AID 743215; active means well fitted inhibition curve with a large enough effect in the signal ratio in the repeat runs, not every such curve was filed as active; inconclusive means weak or mixed curves, or effect the other way; inactive means no such curve, though single readings can be large or run the other way; the % refers to the signal ratio;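 further: cells stimulated with agonist L165041 at 300 nM final during compound exposure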); settings: HEK293H PPARd-UAS-bla, beta-lactamase FRET ratio, antagonist, 17 h; ratio activity, negative = inhibition: at 62 µM (top of the series) unless noted
# Procedure, shortened: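 Fluorescence from cleaved LiveBLAzer B/G FRET substrate (2 h, room temperature) reports PPARd-driven beta-lactamase in HEK293H UAS-bla cells. Cells had been treated 17 h at 37 C with compound plus 300 nM final L165041.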
# [14] = qHTS assay to identify small molecule agonists of the vitamin D receptor (VDR) signaling pathway - cell viability counter screen (AID 743224; active means well fitted curve in the direction sought with a large enough effect in the repeat runs; inconclusive means weak or mixed curves; inactive means no such curve, though single readings can be large; an effect the other way counts as inactive or inconclusive); settings: VDR-bla HEK293T viability, CellTiter-Glo luminescence, 16 h; activity change, negative = cytotoxicity: at 62.6 µM (top of the series)
# Procedure, shortened: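 In parallel with the bla FRET readout, cytotoxicity toward VDR-bla cells after 16 h compound exposure was assessed by CellTiter-Glo, with luminescence recorded after a 30 min room-temperature incubation.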
# Tags describe the fitted curve by direction and shape or compound fluorescence and quenching.
# Sequence of UniProt Q96RI1 (Q96RI1 whole entry, looked up): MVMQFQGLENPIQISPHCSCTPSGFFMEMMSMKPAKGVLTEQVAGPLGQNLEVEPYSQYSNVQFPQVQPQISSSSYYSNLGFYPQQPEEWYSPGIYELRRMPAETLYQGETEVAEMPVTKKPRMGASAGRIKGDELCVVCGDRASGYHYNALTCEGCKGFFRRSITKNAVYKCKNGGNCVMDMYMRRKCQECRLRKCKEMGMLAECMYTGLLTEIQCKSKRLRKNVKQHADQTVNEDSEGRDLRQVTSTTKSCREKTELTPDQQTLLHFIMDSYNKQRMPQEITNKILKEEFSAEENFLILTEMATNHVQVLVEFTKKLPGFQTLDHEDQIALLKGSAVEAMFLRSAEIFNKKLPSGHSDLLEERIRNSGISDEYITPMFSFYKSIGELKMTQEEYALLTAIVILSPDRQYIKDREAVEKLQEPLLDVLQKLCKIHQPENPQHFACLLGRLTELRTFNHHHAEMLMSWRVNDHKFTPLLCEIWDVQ
# Sequence of UniProt Q03181 (Q03181 whole entry, looked up): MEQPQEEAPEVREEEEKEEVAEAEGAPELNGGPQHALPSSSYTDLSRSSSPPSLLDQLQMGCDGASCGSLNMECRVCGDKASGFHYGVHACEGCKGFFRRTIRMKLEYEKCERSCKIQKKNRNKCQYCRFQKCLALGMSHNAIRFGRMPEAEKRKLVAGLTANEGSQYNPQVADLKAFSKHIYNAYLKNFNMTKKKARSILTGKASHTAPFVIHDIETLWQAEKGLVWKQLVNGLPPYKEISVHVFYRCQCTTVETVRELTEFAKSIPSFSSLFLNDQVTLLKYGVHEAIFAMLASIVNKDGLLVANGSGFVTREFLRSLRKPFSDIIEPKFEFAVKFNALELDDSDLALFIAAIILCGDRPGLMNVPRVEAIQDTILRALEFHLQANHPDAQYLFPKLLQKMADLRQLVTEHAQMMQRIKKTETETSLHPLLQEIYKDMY
# Sequence of UniProt P11473 (P11473 whole entry, looked up): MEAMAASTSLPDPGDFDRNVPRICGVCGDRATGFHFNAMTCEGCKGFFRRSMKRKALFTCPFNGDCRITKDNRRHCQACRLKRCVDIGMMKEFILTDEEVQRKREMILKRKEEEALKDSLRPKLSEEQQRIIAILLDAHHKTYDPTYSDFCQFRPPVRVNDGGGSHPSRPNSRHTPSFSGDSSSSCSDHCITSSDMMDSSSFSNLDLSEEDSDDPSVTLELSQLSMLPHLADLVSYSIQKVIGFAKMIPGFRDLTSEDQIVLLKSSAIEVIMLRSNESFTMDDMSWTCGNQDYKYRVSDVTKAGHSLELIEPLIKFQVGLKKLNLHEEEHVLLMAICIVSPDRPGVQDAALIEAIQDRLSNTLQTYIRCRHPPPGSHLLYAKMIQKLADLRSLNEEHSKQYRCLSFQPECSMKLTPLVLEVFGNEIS
structure (smiles),measurement,setting,value
CN1CCC(=C2c3ccccc3Sc3ccccc32)CC1,"viability change, negative = cytotoxic",[1],inconclusive: -34.3% [cytotoxic]
same,Potency,[2],active: 26.6 µM
same,Potency,[3],inactive
same,Potency,[4],"inconclusive: 18.8 µM [cytotoxic, partial curve, poor fit]"
same,Potency,[5],inactive
same,"viability change, negative = cytotoxic",[6],inconclusive: -40.7% [cytotoxic]
same,Potency,[7],"inconclusive: 29.8 µM [falling, partial curve, poor fit]"
same,Potency,[8],inactive
same,Potency,[9],"inconclusive: 2.68 µM [falling, partial curve, poor fit]"
C=C(C)C(=O)O[C@H]1C[C@@H]2CC[C@@]1(C)C2(C)C,Potency,[10],inactive
same,Potency,[8],inactive
same,activation,[9],inconclusive: 8.77%
O=[N+]([O-])c1ccc(/C=C/c2ccc([N+](=O)[O-])cc2S(=O)(=O)O)c(S(=O)(=O)O)c1,Potency,[10],"inconclusive: 30.9 µM [cytotoxic, partial curve, poor fit]"
same,Potency,[11],"inconclusive: 38.9 µM [rising, partial curve, poor fit]"
same,Potency,[7],inactive
same,"activity change, negative = inhibition",[8],inconclusive: 1.58%
same,Potency,[9],inactive
Nc1ccccc1S(=O)(=O)O,Potency,[10],inactive
same,Potency,[12],"inconclusive: 0.0537 µM [rising, partial curve]"
same,Potency,[9],inactive
O=C1c2ccccc2C(=O)C1c1ccccc1,activation,[11],inconclusive: 4.14%
same,Potency,[4],inactive
same,Potency,[5],inactive
same,Potency,[9],inactive
COCN(COC)c1nc(N(COC)COC)nc(N(COC)COC)n1,Potency,[10],"inconclusive: 54.9 µM [rising, partial curve, poor fit]"
same,Potency,[2],inconclusive: 19.5 µM [cytotoxic]
same,Potency,[4],inactive
same,Potency,[9],inactive
COC(=O)c1ccc2cc(C(=O)OC)ccc2c1,Potency,[11],"inconclusive: 14.2 µM [activator, single point]"
same,"viability change, negative = cytotoxic",[4],inconclusive: -35.2% [cytotoxic] [at 28.9 µM]
same,"ratio activity, negative = inhibition",[13],inconclusive: -53.4% [at 28.9 µM]
same,Potency,[14],"inconclusive: 14.2 µM [cytotoxic, single point]"
same,Potency,[9],inconclusive: 14.2 µM [activator]
CCN(CC)CCNC(C(=O)OCCC(C)C)c1ccccc1 (centres undefined),Potency,[10],"inconclusive: 0.298 µM [cytotoxic, single point]"
same,Potency,[4],inactive
same,Potency,[13],inactive
same,Potency,[8],inactive
same,activation,[9],inconclusive: 15.1% [at 35.3 µM]
C[C@H]1O[C@H](O[C@H]2[C@H](O)[C@@H](O)[C@@H](O[C@H]3[C@H](O)[C@@H](O)[C@H](O)O[C@@H]3CO)O[C@@H]2CO)[C@H](O)[C@@H](O)[C@@H]1N[C@H]1C=C(CO)[C@@H](O)[C@H](O)[C@H]1O,Potency,[1],inactive
same,Potency,[10],"inconclusive: 10.6 µM [cytotoxic, full curve, poor fit]"
same,Potency,[2],inactive
same,Potency,[9],inactive
CC(C)(O)c1ccc(C(C)(C)O)cc1,"activity change, negative = cytotoxicity",[10],inconclusive: -30.2% [cytotoxic]
same,Potency,[11],inactive
same,Potency,[2],inactive
same,"activity change, negative = inhibition",[8],inconclusive: 3.72%
same,Potency,[9],inactive
CCc1c(C)[nH]c2c1C(=O)C(CN1CCOCC1)CC2 (centres undefined),Potency,[11],"inconclusive: 11.9 µM [rising, partial curve, poor fit]"
same,Potency,[3],inactive
same,Potency,[8],inactive
same,Potency,[9],"inconclusive: 0.674 µM [activator, partial curve, poor fit]"
CCN(CC)CC1CCCCN1CC(=O)N1c2ccccc2C(=O)Nc2cccnc21 (centres undefined),Potency,[11],inconclusive: 33.5 µM
same,Potency,[13],inactive
same,Potency,[5],inactive
same,Potency,[8],inactive
same,activation,[9],inconclusive: 14.3% [at 35.3 µM]
CC1=NN(c2cc(Cl)c(S(=O)(=O)O)cc2Cl)C(=O)C1N=Nc1ccc(S(=O)(=O)O)cc1 (centres undefined),Potency,[1],inactive
same,Potency,[2],inactive
same,activation,[9],inconclusive: -7.61%
O=C1C(CCS(=O)c2ccccc2)C(=O)N(c2ccccc2)N1c1ccccc1 (centres undefined),Potency,[11],inactive
same,Potency,[2],"inconclusive: 33.5 µM [cytotoxic, partial curve, poor fit]"
same,Potency,[13],inactive
same,Potency,[9],inactive
CC(=O)O[C@H]1C[C@@H]2CC[C@@H]3[C@H](CC[C@@]4(C)[C@H]3C[C@H]([N+]3(C)CCCCC3)[C@@H]4OC(C)=O)[C@@]2(C)C[C@@H]1N1CCCCC1,"activity change, negative = cytotoxicity",[10],inconclusive: 3.16%
same,activation,[9],inconclusive: -2.01% [at 35.3 µM]
CC(=O)c1ccc2c(c1)CCCC2,Potency,[11],inactive
same,Potency,[2],inactive
same,Potency,[3],inactive
same,Potency,[8],"inconclusive: 17.4 µM [fluorescent, partial curve, poor fit]"
same,Potency,[12],"inconclusive: 0.436 µM [cytotoxic, full curve, poor fit]"
same,Potency,[9],inactive
O=C(OCCCCCOC(=O)c1ccccc1)c1ccccc1,Potency,[1],inactive
same,Potency,[11],inactive
same,Potency,[9],inactive
